Experimental data from patent US12350317B2, “Immunotherapy for the treatment and prevention of inflammatory bowel disease” (THE UAB RESEARCH FOUNDATION, priority 2019, dated 2025).

Tested on: donor CBir1Tg CD4+ T cells
Conditions: day 28

Q: How did the “Effect on host CD4+ cells (TM, Treg)” value turn out when CO[C@H]1C[C@@H]2CC[C@@H](C)[C@@](O)(O2)C(=O)C(=O)N2CCCC[C@H]2C(=O)O[C@H]([C@H](C)C[C@@H]2CC[C@@H](O)[C@H](OC)C2)CC(=O)[C@H](C)/C=C(\C)[C@@H](O)[C@@H](OC)C(=O)[C@H](C)C[C@H](C)/C=C/C=C/C=C/1C [rapamycin] was run?
A: no effect
